The supplement of paper PMC7125110
± gives the standard error. This sample is rich in variants without activity.

B1: glmS ribozyme (parent)
chain: AUAAAAGCGCCAGAACUACAGAAAUGUAGUUGACGAGGAGGAGGUUUAUCGAAUUUUCGGCGGAUGCCUCCAAA

Key:
Settings in all cases: with glucosamine-6-phosphate
glucosamine-6-phosphate [1] = variants of: B1; test: self-cleavage kobs at 40 uM GlcN6P; higher = faster cleavage; RNA array
How it was run: (§1)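 Tiles bearing barcoded ribozyme variants, transcribed in situ by E. coli RNA polymerase on sequenced MiSeq chips, were imaged over ~14 h at 37 °C using a hybridised Cy3 probe. Glucosamine-6-phosphate was supplied at 40 μM to 10 mM in HEPES/KCl/Mg(OAc)2 buffer. kobs came from one- or two-exponential decay fits to normalised per-tile medians, and weighted Michaelis–Menten fits then provided kcat and KM.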

glucosamine-6-phosphate [2] = variants of: B1; test: self-cleavage kobs at 160 uM GlcN6P; higher = faster cleavage; RNA array
How it was run: as §1

glucosamine-6-phosphate [3] = variants of: B1; test: self-cleavage kobs at 2500 uM GlcN6P; higher = faster cleavage; RNA array
How it was run: as §1

glucosamine-6-phosphate [4] = variants of: B1; test: self-cleavage kobs at 10000 uM GlcN6P; higher = faster cleavage; RNA array
How it was run: as §1

glucosamine-6-phosphate [5] = variants of: B1; test: self-cleavage kobs at 640 uM GlcN6P; higher = faster cleavage; RNA array
How it was run: as §1

Variant	self-cleavage kobs at 40 uM GlcN6P (glucosamine-6-phosphate [1]) [s⁻¹]	self-cleavage kobs at 160 uM GlcN6P (glucosamine-6-phosphate [2]) [s⁻¹]	self-cleavage kobs at 2500 uM GlcN6P (glucosamine-6-phosphate [3]) [s⁻¹]	self-cleavage kobs at 10000 uM GlcN6P (glucosamine-6-phosphate [4]) [s⁻¹]	self-cleavage kobs at 640 uM GlcN6P (glucosamine-6-phosphate [5]) [s⁻¹]
G51A A64C	< 1e-05	< 1e-05	< 1e-05		
A48U U54G C58A C70U	< 1e-05				
A52C U57A G63C	< 1e-05	< 1e-05		< 1e-05	
U47A U54G G63A	< 1e-05				
U46G G51U U57A C70G	4.37e-05 ± 1.9e-05				
U49C C70U C71A	< 1e-05			< 1e-05	
A48U C50A	< 1e-05	< 1e-05		< 1e-05	< 1e-05
U47G C70U	0.000323 ± 3.2e-05	0.000641 ± 8.8e-05	0.000583 ± 0.00011		0.00192 ± 0.00055
U46G C58U	< 1e-05				
A52G C58U	< 1e-05	< 1e-05			
A48C U65A	< 1e-05				
U47C C50U U56G	< 1e-05				
A52U C61G	< 1e-05	< 1e-05		< 1e-05	
U47G U56C A64G	< 1e-05		7.42e-05 ± 1.5e-05	9.62e-05 ± 1.7e-05	2.82e-05 ± 1.4e-05
C50A C58A	< 1e-05	< 1e-05			
U45G C61U	< 1e-05	< 1e-05	< 1e-05	< 1e-05	< 1e-05
U49G U54A G62A	< 1e-05			< 1e-05	
G51C C71A	< 1e-05	< 1e-05		< 1e-05	< 1e-05
C50A U57A	< 1e-05		< 1e-05		
A48C G62C	< 1e-05	< 1e-05	< 1e-05	< 1e-05	< 1e-05
U45G G63C	< 1e-05		< 1e-05	< 1e-05	< 1e-05
U47G G51A	< 1e-05				
U46G A48U G60C	< 1e-05	< 1e-05	< 1e-05		< 1e-05
U47C G62U U65G	< 1e-05		< 1e-05	< 1e-05	

Variant	self-cleavage kobs at 40 uM GlcN6P (glucosamine-6-phosphate [1]) [s⁻¹]	self-cleavage kobs at 160 uM GlcN6P (glucosamine-6-phosphate [2]) [s⁻¹]	self-cleavage kobs at 2500 uM GlcN6P (glucosamine-6-phosphate [3]) [s⁻¹]	self-cleavage kobs at 10000 uM GlcN6P (glucosamine-6-phosphate [4]) [s⁻¹]	self-cleavage kobs at 640 uM GlcN6P (glucosamine-6-phosphate [5]) [s⁻¹]
A48U G66U	< 1e-05				
A48U A52G	< 1e-05				
A48U A52C	< 1e-05	< 1e-05		< 1e-05	< 1e-05
A48U A52U	< 1e-05	< 1e-05	< 1e-05	< 1e-05	< 1e-05
U47G A48C C50A	< 1e-05			< 1e-05	< 1e-05
U49A G51C	< 1e-05	< 1e-05		< 1e-05	
U49A G51U	< 1e-05			< 1e-05	< 1e-05
U49A C50A C70G	< 1e-05			< 1e-05	5.26e-05 ± 2.2e-05
A48U G60C C61U	< 1e-05				< 1e-05
A48U G51U G60A	< 1e-05		< 1e-05		
U46C	0.000108 ± 2.5e-06	0.000364 ± 1.3e-05	0.00342 ± 0.00018	0.00329 ± 7.7e-05	0.00126 ± 3.5e-05
A48C U49A	< 1e-05			< 1e-05	
U49C G59A	< 1e-05				
U47A C61G	< 1e-05				
A52C C67U	< 1e-05				
C50G C68A	7.16e-05 ± 9.2e-06	0.000228 ± 3.1e-05			0.000137 ± 2.4e-05
U46G C50U	< 1e-05	< 1e-05			
C50G G62U C68G	0.000123 ± 3.2e-05				
U46A G66C	5.47e-05 ± 1.7e-05				
U46G G59C	< 1e-05	< 1e-05	< 1e-05		< 1e-05
U47C A48G G59U U65C	< 1e-05				
U45G G62U	< 1e-05	< 1e-05	< 1e-05	< 1e-05	< 1e-05
U45G G62C	< 1e-05	< 1e-05	< 1e-05	< 1e-05	< 1e-05
C50G G66A C70A	7.79e-05 ± 2.3e-05				

Variant	self-cleavage kobs at 40 uM GlcN6P (glucosamine-6-phosphate [1]) [s⁻¹]	self-cleavage kobs at 160 uM GlcN6P (glucosamine-6-phosphate [2]) [s⁻¹]	self-cleavage kobs at 2500 uM GlcN6P (glucosamine-6-phosphate [3]) [s⁻¹]	self-cleavage kobs at 10000 uM GlcN6P (glucosamine-6-phosphate [4]) [s⁻¹]	self-cleavage kobs at 640 uM GlcN6P (glucosamine-6-phosphate [5]) [s⁻¹]
U46C A53G	8.69e-05 ± 1.5e-05	0.000402 ± 6.7e-05	0.0025 ± 0.00035	0.00272 ± 0.00067	0.00119 ± 0.00015
G51A G62A	< 1e-05				
A52G U55A C68U C71G	< 1e-05				
A52U A53G C61U	< 1e-05				
U47A C70U	0.000803 ± 0.00012	0.00118 ± 0.00023	0.00221 ± 0.00048	0.00993 ± 0.0023	0.0018 ± 0.00029
C50U G60C	< 1e-05	< 1e-05		< 1e-05	
U49C G60C	< 1e-05		< 1e-05	< 1e-05	
U49C G60U	< 1e-05				
C50U G60U C70U	< 1e-05				
U49A C58U	< 1e-05		< 1e-05		< 1e-05
U49G A53C G60C	< 1e-05				
U47G C50U A64U	< 1e-05				
G51U G60C C70G	< 1e-05				
C50G U69G	0.000135 ± 1.6e-05	0.000165 ± 3e-05	0.000126 ± 2e-05	0.000141 ± 1.5e-05	0.000151 ± 2.4e-05
A48G G60C	< 1e-05		< 1e-05	< 1e-05	< 1e-05
U46G A53G	0.000271 ± 7.8e-05	0.000482 ± 0.00011	0.00267 ± 0.00089	0.00811 ± 0.0028	0.00165 ± 0.00049
U49G U55G U65G	< 1e-05				
U49A A53U	< 1e-05				
U46G G62U	< 1e-05	< 1e-05	< 1e-05	< 1e-05	< 1e-05
A52C G60A C68U	< 1e-05			< 1e-05	
C50A G62U G63A	< 1e-05	< 1e-05	< 1e-05	< 1e-05	< 1e-05
U46C G63U C70A	< 1e-05				
U45G C50U	< 1e-05	< 1e-05			
A48U U65A G66C C68A	< 1e-05			< 1e-05	< 1e-05

Variant	self-cleavage kobs at 40 uM GlcN6P (glucosamine-6-phosphate [1]) [s⁻¹]	self-cleavage kobs at 160 uM GlcN6P (glucosamine-6-phosphate [2]) [s⁻¹]	self-cleavage kobs at 2500 uM GlcN6P (glucosamine-6-phosphate [3]) [s⁻¹]	self-cleavage kobs at 10000 uM GlcN6P (glucosamine-6-phosphate [4]) [s⁻¹]	self-cleavage kobs at 640 uM GlcN6P (glucosamine-6-phosphate [5]) [s⁻¹]
C50G G51C C70U	< 1e-05				
A52C A53G	< 1e-05	< 1e-05	< 1e-05	< 1e-05	< 1e-05
A48G G63U	< 1e-05		< 1e-05	< 1e-05	
U46A G59U	< 1e-05	< 1e-05		< 1e-05	< 1e-05
A52G G59U	< 1e-05				< 1e-05
U47G G59C	< 1e-05		< 1e-05	< 1e-05	< 1e-05
U47G G59A	< 1e-05				
A48U C61A C67U	< 1e-05				
A48C G59C	< 1e-05	< 1e-05	< 1e-05	< 1e-05	< 1e-05
G51C G63C	< 1e-05	< 1e-05	< 1e-05	< 1e-05	
U45G U57G	< 1e-05	< 1e-05		3.68e-05 ± 9e-06	
C50A U56C C71A	< 1e-05			< 1e-05	
U47C A53U U56A G59C	< 1e-05		< 1e-05	< 1e-05	< 1e-05
A48U G62A	< 1e-05	< 1e-05	< 1e-05	< 1e-05	< 1e-05
U45C G63U	< 1e-05	< 1e-05	< 1e-05	< 1e-05	< 1e-05
A48C U65A U69G	< 1e-05		< 1e-05	< 1e-05	
U47C G66A	0.000111 ± 2.1e-05	0.00017 ± 6.1e-05	0.00159 ± 0.00037	0.00183 ± 0.0004	0.000815 ± 0.0002
U49G U56C	< 1e-05				
A48C C68U	< 1e-05		6.35e-05 ± 1.3e-05	7.54e-05 ± 1.1e-05	
U49C U57C	< 1e-05	< 1e-05		< 1e-05	< 1e-05
A48U C58U	< 1e-05				
A52U A53C	< 1e-05	< 1e-05		< 1e-05	< 1e-05
U49C U69C	< 1e-05	< 1e-05	< 1e-05		< 1e-05
